The campaign covered roughly 310,000 compounds. About 14,000 (4.5%) showed an effect of 50% or more. The effect is printed as a negative number. Some of the results follow.
Target: human ether-à-go-go-related gene (hERG) potassium channel (human, UniProt Q12809)
Assay: primary screen, population patch clamp on CHO cells stably expressing hERG
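Note: peak tail current of the secondary pulse compared with the same well before compound.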

Chain of human ether-à-go-go-related gene (hERG) potassium channel (Q12809 whole entry, looked up): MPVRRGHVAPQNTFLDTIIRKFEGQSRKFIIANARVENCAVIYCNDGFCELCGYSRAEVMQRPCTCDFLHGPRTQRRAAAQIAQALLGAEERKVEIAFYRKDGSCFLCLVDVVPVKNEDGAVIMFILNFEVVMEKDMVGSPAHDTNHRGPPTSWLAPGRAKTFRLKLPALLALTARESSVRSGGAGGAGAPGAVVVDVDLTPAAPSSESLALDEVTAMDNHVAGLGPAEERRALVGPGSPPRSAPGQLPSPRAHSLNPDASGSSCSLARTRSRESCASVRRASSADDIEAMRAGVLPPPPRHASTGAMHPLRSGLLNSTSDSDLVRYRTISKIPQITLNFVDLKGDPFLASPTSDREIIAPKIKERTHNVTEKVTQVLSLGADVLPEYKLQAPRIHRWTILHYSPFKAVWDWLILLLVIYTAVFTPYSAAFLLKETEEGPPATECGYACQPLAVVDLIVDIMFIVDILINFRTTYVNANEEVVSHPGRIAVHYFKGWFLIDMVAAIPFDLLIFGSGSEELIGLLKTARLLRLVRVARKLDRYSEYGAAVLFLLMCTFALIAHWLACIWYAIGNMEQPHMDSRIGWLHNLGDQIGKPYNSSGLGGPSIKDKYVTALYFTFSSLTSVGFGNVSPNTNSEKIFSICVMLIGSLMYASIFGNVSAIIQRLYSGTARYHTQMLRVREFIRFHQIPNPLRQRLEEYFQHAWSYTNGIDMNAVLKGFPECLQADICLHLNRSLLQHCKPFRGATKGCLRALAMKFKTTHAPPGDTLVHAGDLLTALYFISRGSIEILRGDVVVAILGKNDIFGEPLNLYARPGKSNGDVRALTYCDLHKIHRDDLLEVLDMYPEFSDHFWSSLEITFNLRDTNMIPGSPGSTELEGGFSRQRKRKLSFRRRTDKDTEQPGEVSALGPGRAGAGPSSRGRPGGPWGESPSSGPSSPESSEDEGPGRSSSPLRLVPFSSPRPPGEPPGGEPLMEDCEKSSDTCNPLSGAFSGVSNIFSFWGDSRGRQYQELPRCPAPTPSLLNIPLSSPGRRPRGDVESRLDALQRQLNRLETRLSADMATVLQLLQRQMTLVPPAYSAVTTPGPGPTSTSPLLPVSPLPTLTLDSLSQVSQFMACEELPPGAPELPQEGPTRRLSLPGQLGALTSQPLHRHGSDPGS

| Compound | hERG current change (%, negative = inhibition) at 10uM [%] |
| --- | --- |
| O=C(/C=C/c1ccc2c(c1)OCO2)N1CCCCC1 | 10.6 |
| Fc1ccc(-c2ncc3ccccn23)cc1 | 16.4 |
| CN(CC(=O)Nc1cccc(Cl)c1)S(=O)(=O)c1ccc2c(c1)n(C)c(=O)c(=O)n2C | 9.5 |
| Cc1ccc(/C=C/C(=O)NCc2ccco2)o1 | 2.73 |
| Cc1nc2ccccn2c(=O)c1NC(=O)c1cccs1 | -1.25 |
| COc1ccc(NC(=O)CN(c2ccc(C(C)C)cc2)S(=O)(=O)c2c(C)noc2C)cc1OC | 13.1 |
| Cc1oc(-c2cccc(Cl)c2)nc1CN1CCC(C(=O)NCCCN2CCCC2=O)CC1 | -38 |
| COc1cccc(NC(=O)CCP(C)(=O)O)c1 | 1.72 |
| CCOCc1nnc(NC(=O)CCS(=O)(=O)Cc2ccccc2)s1 | 11.8 |
| CCCOc1ccc2oc(=O)c3c(c2c1)CCCN3C(=O)CN(C)Cc1ccccc1 | -29.7 |
| Cc1onc(-c2ccccc2Cl)c1C(=O)Nc1nnc(-c2cccc([N+](=O)[O-])c2)s1 | 17.2 |
| O=C(COc1coc(CN2CCc3ccccc3C2)cc1=O)Nc1cccc(F)c1 | 1.64 |
| O=C(Cn1cnc2scc(-c3ccccc3)c2c1=O)NCc1ccco1 | -24.9 |
| CC1(C)CC2(CCO1)NCCN1C(=O)CSC12 (centres unmarked) | 5.9 |
| Cc1ccc(SC2=C(Sc3ccc(C)cc3)C(=O)c3ccccc3C2=O)cc1 | 15.1 |
| O=C(CNC(=O)c1ccco1)Nc1ccc2c(c1)OCCO2 | 4.06 |
| CCOc1cc(C=O)ccc1OCC(=O)N1CCCC1 | 12.6 |
| O=C(/C=C/c1ccc(F)cc1)N1CCCc2ccccc21 | -62.7 |
| Cc1ccc(-c2nc3ccccc3nc2Cl)cc1 | 16.4 |
| CC(Oc1cccc2c1OC(C)(C)C2)C(=O)O (centres unmarked) | -5.47 |
| O=C(CSc1nc2ccccc2c(=O)n1CCCC(=O)N1CCCC1)NCc1ccco1 | -62.4 |
| COc1ccccc1/C=C(/NC(=O)c1ccccc1)C(=O)NCCCn1ccnc1 | 2.6 |

| Compound | hERG current change (%, negative = inhibition) at 10uM [%] |
| --- | --- |
| COc1cccc2cc(C(=O)N(Cc3cccs3)CC3CCCO3)c(=O)oc12 (centres unmarked) | 10.8 |
| Cc1cccc(Nc2ccc(C(=O)O)cc2[N+](=O)[O-])c1C | 16.3 |
| O=C(Cn1[nH]c(=O)c2ccccc2c1=O)Nc1cccnc1 | 10.2 |
| O=C(NNC(=S)Nc1ccccc1)Nc1ccccc1 | 6.9 |
| CCOc1ccc(NS(=O)(=O)c2c(C)nc3sccn3c2=O)cc1 | -14.6 |
| COc1cc(C(=O)Nc2nc(-c3cccs3)cs2)cc(OC)c1OC | 18.7 |
| Nc1c(C(=O)Nc2ccc(Cl)c(Cl)c2)sc2nc(-c3cccnc3)ccc12 | -7.28 |
| Cc1ccc(O)c(-c2cc(-c3ccc(F)cc3)no2)c1 | 2.11 |
| c1ccc(-c2noc(CSc3nnnn3-c3ccccc3)n2)cc1 | -15 |
| Cc1ccccc1Cn1nc(C)c(NC(=O)c2noc3c2CCc2ccccc2-3)c1C | 17.3 |
| O=C1Oc2ccccc2C(=O)/C1=C\N1CCN(c2ccccc2)CC1 | 2.32 |
| Cc1ccc(CSc2nc3[nH]ncc3c(=O)[nH]2)cc1 | 4.08 |
| Cc1cc(NC(=O)c2ccccc2)cc(NC(=O)c2ccccc2)c1C | 17.2 |
| O=C(CNS(=O)(=O)c1ccccc1)N/N=C/c1ccccc1[N+](=O)[O-] | 9.17 |
| CC(Oc1ccc2c(=O)c(-c3ccc(Cl)cc3)c(C(F)(F)F)oc2c1)C(=O)O (centres unmarked) | -0.765 |
| O=C(CCN1c2ccccc2Sc2ccccc21)OCC(=O)N1CCN(C(=O)c2ccco2)CC1 | -66 |
| CCN(CC)CCC(=O)N1c2ccccc2Sc2ccc(Cl)cc21.Cl | -42.7 |
| c1ccc(-c2noc(-c3ccc4ccccc4c3)n2)cc1 | 11.9 |
| CCOC(=O)c1c(CSc2ccccc2)n(C)c2ccc(O)cc12 | 21.3 |
| CCCCC1(CO)C(=O)N(c2ccccc2)N(c2ccccc2)C1=O | 15.4 |
| O=C(NCC1CCCO1)c1ccc(Br)s1 (centres unmarked) | 8.71 |
| O=C(Cc1ccc2c(c1)OCCO2)N1CCN(S(=O)(=O)c2cccc(Cl)c2Cl)CC1 | -6.55 |

Reference: publication PMC4336329 (PLoS ONE, 2015)
